Measurements taken from PubChem BioAssay AID1671194 (National Center for Advancing Translational Sciences (NCATS), 2021).
In all, about 140,000 compounds went through this assay and about 240 (0.17%) were called active. Inconclusive means that the source gave no clear call. Such entries were picked first, then a sample of the others. Calls come from the whole dose curve; as a rule, active = well fitted inhibition curve with a large enough effect; inconclusive = small, poorly fitted or top-dose-only effect; inactive = no such curve, though single readings can be large or run the other way. Potencies of inconclusive entries are doubtful fits and often do not repeat.

test: Primary qHTS assay for inhibitors of alpha-synuclein gene (SNCA) expression; conditions: HEK-293 SNCA-luciferase knock-in, luminescence, 24 h; series mostly up to 57.2 µM; note: nearly all actives have a fitted effect of over 45% in size
Potency is the fitted concentration of half-maximal effect; tags give direction and shape of the fitted curve.

SMILES	Potency
Cc1ccc(C)c(S(=O)(=O)c2nnn3c2nc(N2CCN(C)CC2)c2sccc23)c1	inconclusive: 2 µM [inhibitor, full curve, poor fit]
c1ccc(-c2noc(-c3ccc(OC4CNC4)cc3)n2)cc1	active: 10 µM
COc1cccc2c1C(=O)c1c(O)c3c(c(O)c1C2=O)C[C@@](O)(C(=O)CO)C[C@@H]3O[C@H]1C[C@H](N)[C@@H](O)[C@H](C)O1	inconclusive: 4.29 µM [inhibitor, full curve]
COc1ccc(-c2cc(-c3ccncc3)cn3cncc23)cc1	inconclusive: 12.6 µM [inhibitor, partial curve, poor fit]
COc1ccccc1CNC(=O)CCc1c(C)nc2cc(-c3ccc(Cl)cc3)nn2c1C	inconclusive: 10 µM [inhibitor, partial curve, poor fit]
O=C([C@@H]1C[C@H](F)CN1S(=O)(=O)Cc1ccccc1F)N1CCc2ccccc2C1	inconclusive: 28.2 µM [inhibitor, single point]
CCCN(CCC)C(=O)Cn1c(=O)n(-c2cccc(C)c2)c(=O)c2c1c1cc(OC)ccc1n2C	inconclusive: 39.8 µM [inhibitor, single point]
COc1ccc(C(=O)N[C@@H]2CN(c3ncccn3)C[C@H]2CN(C)C)cc1F	inactive
COc1ccc(C2Cn3nnc(C(=O)N4CCN(C(=O)c5ccc(F)cc5)CC4)c3CO2)cc1 (stereo not given)	inconclusive: 8.91 µM [inhibitor, single point]
Cc1ccc(C)c(NC(c2ccccc2)c2nnc(-c3ccccc3F)o2)c1 (stereo not given)	inconclusive: 39.8 µM [inhibitor, single point]
COc1ccc(-c2cc(C[C@H]3CNCC[C@H]3CC(=O)NCc3ccc(F)cc3)no2)cc1	inactive
COc1ccccc1CC(=O)NCc1nnc2ccc(-c3ccccc3)nn12	inactive
CC1=C[C@@H](CNC(=O)c2cccnc2)[C@H](C(C)C)C[C@H]1Cc1nc2ccc(F)cc2[nH]1	inconclusive: 56.2 µM [inhibitor, single point]
O=C(NC1CCN(c2nccc(Nc3ccccc3F)n2)CC1)c1ccccc1Cl	inactive
CCC(CC)NC(=O)CCC1CCN(C(=O)c2ccccc2F)CC1	inactive
CN1C[C@H](O)C[C@H]1c1nnc2n1CCN(Cc1ccc3c(c1)CCO3)C2	inconclusive: 7.08 µM [inhibitor, full curve]
O=C(NC1CCCCC1)C1CCN(C(=O)c2ncn3c2COC(c2ccc(Cl)cc2)C3)CC1 (stereo not given)	inactive
CC(=O)NC1CCN(C(=O)c2ccc(-c3cncnc3)cc2)CC1	inactive
O=C(CN1C(=O)c2ccccc2Sc2ccc(C(=O)N3CCOCC3)cc21)Nc1ccc(Cl)cc1F	inconclusive: 11.2 µM [inhibitor, partial curve, poor fit]
Cn1c(Cn2cccn2)nnc1C1CC(Nc2ncnc3ccsc23)C1 (stereo not given)	inconclusive: 11.2 µM [inhibitor, partial curve]
COc1cccc(NC(=O)Nc2ccc3c(c2)N(C)C(=O)c2ccccc2S3)c1	active: 20 µM
Cc1ccc(S(=O)(=O)c2nnn3c2nc(N2CCOCC2)c2ccccc23)cc1	inactive

SMILES	Potency
CC(=O)c1cccc(NC(=O)c2ccc3nc(Cc4ccccc4)oc3c2)c1	inconclusive: 2 µM [inhibitor, full curve]
Cc1ccc2c(c1)N(C(=O)CCC(=O)NCc1cccc(F)c1)CC(C)O2 (stereo not given)	inconclusive: 28.2 µM [inhibitor, partial curve, poor fit]
O=c1oc2ccccc2cc1-c1cn2cc(Cc3cc(Cl)ccc3Cl)sc2n1	inactive
CC(=O)NC[C@H]1CCN(S(=O)(=O)c2cccc(C#N)c2)C[C@H]1N(C)C	inconclusive: 22.4 µM [inhibitor, partial curve, poor fit]
Cc1cnc(CNc2ncncc2-c2ccc(C(=O)N(C)C)cc2)cn1	inconclusive: 2 µM [inhibitor, partial curve, poor fit]
O=C1Nc2ccc(/C=C/c3ccccc3)cc2C(=O)N2CC[C@H](NS(=O)(=O)c3cccs3)[C@@H]12	inconclusive: 3.55 µM [inhibitor, single point]
CCN(Cc1ccccc1)S(=O)(=O)c1cc(Br)cc2c1N(C(=O)C1CC1)CC2	inconclusive: 39.8 µM [inhibitor, single point]
Cc1nn2c(c1-c1ccccc1N1CCCC1)N(C(=O)c1cc3ccccc3n1C)CCC2	inconclusive: 56.2 µM [inhibitor, single point]
O=C(C1CCOCC1)N1CCC(c2noc(COc3ccc(F)cc3)n2)C1 (stereo not given)	inactive
Cc1ccc2onc(CC(=O)N3CCN(c4cccc(Cl)c4)CC3)c2c1	inactive
Cc1cc(F)ccc1NC(=O)Cn1cc(S(=O)(=O)NC(C)C)c(S(=O)(=O)NC(C)C)c1	inconclusive: 0.355 µM [inhibitor, full curve]
CN(C)S(=O)(=O)N1CCCC(CCc2cccc(F)c2)C1 (stereo not given)	inconclusive: 2.82 µM [inhibitor, full curve]
CC(C)CCN1C[C@@H](CO)[C@H](c2nc(-c3cccnc3)no2)C1	inactive
CCN1C(C(=O)c2ccccc2)=C(OC(=O)COc2ccc(C)cc2)c2ccccc2S1(=O)=O	inconclusive: 25.1 µM [inhibitor, single point]
COc1cccc(CCC(=O)N2C[C@@H](CO)[C@H](NC(=O)c3ccccc3)C2)c1	inactive
Cc1noc(-c2cn(C3CCCN(C(=O)c4cccc5[nH]ccc45)C3)nn2)n1 (stereo not given)	inactive
CC(=O)N1CCCc2ccc(NS(=O)(=O)c3cccc(Cl)c3)cc21	inconclusive: 39.8 µM [inhibitor, single point]
CC1(C)N=C(c2ccccc2)C(=O)N1CC(N)=O	inconclusive: 5.62 µM [inhibitor, full curve, poor fit]
CC1(CNc2ccccc2)COc2ccc(C(=O)NCCOc3ccccc3)cc2N1 (stereo not given)	inactive
COc1ccc(CN2C(=O)COC[C@H]2C(=O)Nc2cc(F)ccc2C)c(OC)c1	inconclusive: 2.82 µM [inhibitor, full curve, poor fit]
Cc1ccc(Cn2c(=O)n(Cc3ccccc3)c(=O)c3oc4ccccc4c32)cc1	inconclusive: 4.47 µM [inhibitor, full curve]
CCCNC(=O)N1C[C@@H]2CCCN3CCC[C@@H]([C@H]23)[C@H]1CCCC(=O)NCC1CC1	inconclusive: 3.16 µM [inhibitor, full curve]

SMILES	Potency
Cc1noc(C)c1Cc1ccc(C(=O)NCCc2noc(-c3ccccc3)n2)o1	inactive
CCC(=O)N1CCc2cc(Br)cc(S(=O)(=O)NCCc3cccc(C)c3)c21	inconclusive: 2.51 µM [inhibitor, single point]
O=C1c2c(nc(COc3cc(F)cc(F)c3)n2Cc2ccccc2)NCCN1Cc1ccccc1F	inactive
CCOc1cc(C(=O)Nc2cc3c(cc2N2CCCC2)n(C)c(=O)c(=O)n3C)cc(OCC)c1OCC	inconclusive: 39.8 µM [inhibitor, single point]
Cc1ccc(NC(=O)C2CCCN(c3ncnc4c3nc3n4CCCCC3)C2)c(Br)c1 (stereo not given)	inconclusive: 39.8 µM [inhibitor, single point]
CCOc1ccccc1CN1CCC2(CCN([S+](=O)([O-])c3ccc(C)cc3)CC2)Oc2ccccc21	inactive
Cc1ccc(C(=O)N2CCC(c3n[nH]c(=O)n3Cc3ccc(F)cc3)CC2)c(C)c1	inconclusive: 12.6 µM [inhibitor, partial curve, poor fit]
O=C(c1cccc2c1OCCO2)N1CCCn2nc(CO)cc2C1	inconclusive: 5.01 µM [inhibitor, full curve]
O=C(c1ccccc1F)N1C[C@@H](CO)[C@H](c2nc(C3CC3)no2)C1	inactive
Cc1ccc(-n2nc3c(=O)n(C(C)C(=O)NCc4ccc(OC(C)C)cc4)nc(C)c3c2C)cc1 (stereo not given)	inconclusive: 39.8 µM [inhibitor, single point]
O=C(c1ccc2oc(-c3ccncc3)nc2c1)N1CCCCC1	inactive
CC1(C(=O)NCC2CC2)CCc2cnc(Nc3ccccc3)nc21 (stereo not given)	inconclusive: 15.8 µM [inhibitor, partial curve, poor fit]
Cc1nn2c(c1-c1ccccc1OCc1ccccc1)N(C(=O)C1CCOCC1)CCC2	inconclusive: 6.31 µM [inhibitor, partial curve]
CCN(C(=O)CCC(=O)NCCc1noc(-c2cccnc2)n1)c1ccccc1	inactive
Cc1cc2cc(-c3c(C)noc3C)nc(Nc3cccc(F)c3)c2o1	inconclusive: 39.8 µM [inhibitor, single point]
Cc1ccc2c(CNC3CCCCC3)c(C(=O)O)n(Cc3ccc(F)cc3)c2c1	inconclusive: 7.08 µM [inhibitor, single point]
COc1ccc(-c2cn3c(n2)CO[C@@H](CNCc2ccc(Cl)cc2)C3)cc1	inactive
Cc1ccc(-n2c(SCc3ccccc3F)nc3[nH]ncc3c2=O)cc1Cl	inconclusive: 35.5 µM [inhibitor, single point]
O=C(NC1CCc2nn(CC3CC3)c(=O)n2CC1)c1ccc2nc[nH]c2c1 (stereo not given)	inconclusive: 1.58 µM [inhibitor, full curve]
CCCCN(CCCNC(=O)c1cc(Nc2cccc(SC)c2)nc2ccccc12)Cc1ccccc1	inconclusive: 39.8 µM [inhibitor, single point]
O=C1NCCCCCCN(Cc2cccc(F)c2)[C@H]2CCC[C@@H]12	inconclusive: 3.16 µM [inhibitor, single point]
